Screen size: about 200,000 compounds; about 4,500 (2.2%) were called active. This list was built around the results that the source calls inconclusive (neither active nor inactive); the mix of calls is not that of the screen. Calls follow the shape of the dose curve; as a rule, active = well fitted inhibition curve with a large enough effect; inconclusive = small, poorly fitted or top-dose-only effect, or effect the other way; inactive = flat fitted curve, though single readings scatter. A potency beside an inconclusive call is a rough fit, not a confirmed value.
Biological target: Cruzipain (Trypanosoma cruzi) (UniProt P25779)
Sequence of UniProt P25779 (P25779 whole entry, looked up): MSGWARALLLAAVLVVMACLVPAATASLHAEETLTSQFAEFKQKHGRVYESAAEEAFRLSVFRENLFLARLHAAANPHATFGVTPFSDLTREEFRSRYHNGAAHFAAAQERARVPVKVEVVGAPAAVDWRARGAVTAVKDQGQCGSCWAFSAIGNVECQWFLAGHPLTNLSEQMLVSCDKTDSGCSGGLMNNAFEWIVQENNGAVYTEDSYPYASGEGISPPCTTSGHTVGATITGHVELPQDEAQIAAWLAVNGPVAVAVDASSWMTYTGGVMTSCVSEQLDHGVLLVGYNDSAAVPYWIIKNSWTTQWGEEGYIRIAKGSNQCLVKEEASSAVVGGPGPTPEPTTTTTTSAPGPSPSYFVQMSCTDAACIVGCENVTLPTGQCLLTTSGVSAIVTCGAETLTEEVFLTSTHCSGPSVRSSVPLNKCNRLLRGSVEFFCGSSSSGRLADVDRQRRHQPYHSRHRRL
Test: qHTS Assay for Promiscuous and Specific Inhibitors of Cruzain (without detergent); also: nearly all actives have a fitted effect of over 40% in size;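 as to max response, negative = inhibition: plate controls were enzyme without inhibitor for no effect and buffer without enzyme for full effect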
Settings: purified cruzain, Z-FR-AMC fluorescence, no detergent
How it was run: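 Purified cruzain at 1.5 nM, pre-incubated 15 min with compound at room temperature in 100 mM sodium acetate pH 5.5, 5 mM DTT, 0.00005% Triton X-100. Reaction started with 2 uM Z-FR-AMC; AMC fluorescence increase over 60 s gives rate.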
Potency is read from the fitted curve at half-maximal effect; tags tell the direction and shape of the fitted curve.

SMILES | Potency | max response, negative = inhibition
O=C(CSc1nn(-c2ccc(Cl)cc2)c(=S)s1)N1CCN(C(=O)c2ccco2)CC1 | inconclusive: 39.8 µM [activator, single point] | –
CC1(C)CC2CC(C)(CN2S(=O)(=O)c2ccc(C(=O)Nc3cccc(S(=O)(=O)N4CCOCC4)c3)cc2)C1 (configuration not stated) | – | inactive: 4.93%
COc1ccc(N2CCN(C(=O)c3ccc(Oc4ccc(C(F)(F)F)cn4)cc3)CC2)cc1 | inconclusive: 25.1 µM [activator, single point] | –
COc1ccc(-c2noc(COc3ccc(Br)cc3C)n2)cc1OC | inconclusive: 31.6 µM [activator, single point] | –
Cn1c(C(=O)Nc2ccc3c(c2)OCCO3)cc2c(=O)n(C)c3ccccc3c21 | inconclusive: 39.8 µM [activator, single point] | –
Cc1csc(B(O)O)c1 | – | inactive: -2.83%
Cc1c2cnn(-c3ccccc3)c(=O)c2c(C)n1CCCC(=O)N1CCN(c2ncccn2)CC1 | inconclusive: 39.8 µM [activator, single point] | –
COc1ccc(N(CC(=O)N2CCc3ccccc32)S(=O)(=O)c2c(C)n[nH]c2C)cc1 | inconclusive: 31.6 µM [activator, single point] | –
CCc1cccc(C)c1NC(=O)Cn1ccn(Cc2ccc(Cl)cc2)c(=O)c1=O | – | inactive: 7.3%
CCC(=O)OCC(=O)[C@@]1(OC(=O)CC)[C@H](C)C[C@@H]2[C@H]3CCC4=CC(=O)C=C[C@]4(C)[C@]3(Cl)[C@@H](O)C[C@@]21C | inconclusive: 15.8 µM [activator, partial curve, poor fit] | –
Cc1cc(C)c2c(CC(=O)Nc3ccc(S(=O)(=O)Nc4ncccn4)cc3)coc2c1 | inconclusive: 25.1 µM [inhibitor, single point] | –
COc1ccc(/C=N/n2c(SC)nnc(C(C)(C)C)c2=O)cc1OC | inconclusive: 25.1 µM [activator, partial curve] | –
Cc1ccc(C2CC(c3ccccc3)=NN2C(=S)Nc2ccccc2)o1 (configuration not stated) | inconclusive: 31.6 µM [inhibitor, single point] | –
Cc1ccc(S(=O)(=O)CCC(=O)OCC(=O)c2c[nH]c3ccccc23)cc1 | active: 20 µM | –
CC(=O)C1=C(C)NC(C)=C(C(C)=O)C1c1ccc(-c2ccccc2Cl)o1 | inconclusive: 31.6 µM [activator, single point] | –
O=C(Nc1cccc(-c2nnc(-c3ccccc3)o2)c1)c1ccc(Br)o1 | inconclusive: 39.8 µM [activator, single point] | –
CCOc1cc(C(=O)N2CCN(c3ccc(C(C)=O)cc3)CC2)cc(OCC)c1OCC | inconclusive: 31.6 µM [activator, single point] | –
COc1ccccc1CNC(=O)Cn1c(=O)oc2cc(S(=O)(=O)NCc3ccccc3)ccc21 | inconclusive: 39.8 µM [inhibitor, single point] | –
CCN(Cc1ccccc1)C(=O)CN1C(=O)COc2ccc(S(=O)(=O)N(CC)CC)cc21 | – | inactive: 17.1%
O=C(NCc1ccccc1Cl)c1cc(=O)[nH]c2ccc(S(=O)(=O)N3CCCCC3)cc12 | – | inactive: 6.08%
CC(C)n1cc(/C=C2/NC(=O)N(c3cccc(Cl)c3)C2=O)c2ccccc21 | active: 15.8 µM | –

SMILES | Potency | max response, negative = inhibition
COc1ccc(C2Nc3ccccc3C(=O)N2Cc2ccco2)cc1COc1ccccc1F (configuration not stated) | active: 25.1 µM | –
CC(C)c1cccc2nc3c(c(C(C)(C)C)c12)Cn1c-3cccc1=O | inconclusive: 39.8 µM [activator, single point] | –
COc1ccccc1NC(=O)CCS(=O)(=O)c1cc2c3c(c1)CCN3C(=O)CC2 | – | inactive: -1.87%
COC(=O)c1ccc(N2CCN(CC(=O)c3ccc(-c4ccccc4)cc3)CC2)c([N+](=O)[O-])c1 | inconclusive: 31.6 µM [inhibitor, single point] | –
CCn1c(SCC(=O)Nc2oc(-c3ccccc3)c(-c3ccccc3)c2C#N)nnc1-c1ccncc1 | inconclusive: 31.6 µM [activator, single point] | –
COc1cc(CN(C(=O)c2cccc(C)c2)c2ccccn2)cc(OC)c1OC | – | inactive: -8.94%
CCn1c(CCNC(=O)c2ccc(C)cc2)nnc1SCc1ccc(Cl)c(Cl)c1 | inconclusive: 25.1 µM [activator, single point] | –
N#Cc1nc(-c2ccc(Cl)cc2)oc1NCc1cccc2c1OCO2 | inconclusive: 39.8 µM [inhibitor, single point] | –
COc1cccc(-c2cc(C(=O)Nc3ccc4c(c3)OCCO4)c3ccccc3n2)c1 | inconclusive: 25.1 µM [inhibitor, single point] | –
CCOC(=O)CNC(=O)O[C@H]1C(=O)c2ccc(OC)cc2O[C@@H]1c1ccc2c(c1)OCO2 | – | inactive: -1.61%
O=C(Nc1ccc(Cn2cccn2)cc1)c1ccc(COc2ccc(Br)cc2)cc1 | active: 12.6 µM | –
Cc1cc(Cl)ccc1OCC(=O)Nc1c(C(=O)c2ccccc2)oc2ccccc12 | – | inactive: -3.02%
CCCc1nnc(SCC(=O)N2CCCCC2C)n1CC1CCCO1 (configuration not stated) | – | inactive: -0.891%
Cc1ccc(S(=O)(=O)N2c3ccccc3-c3c(ssc3=S)C2(C)C)cc1 | inconclusive: 31.6 µM [inhibitor, single point] | –
COC(=O)c1cc(=O)n(-c2ccc(F)cc2)c(=Nc2ccc(F)cc2)s1 | inconclusive: 39.8 µM [activator, single point] | –
Cc1ccc2nc(-c3cccnc3SCC(=O)N3c4ccccc4CC3C)[nH]c2c1 (configuration not stated) | inconclusive: 39.8 µM [inhibitor, single point] | –
CCn1nc(C)c(CCN(C)C(=O)Nc2cc(C)cc(C)c2)c1C | – | inactive: -4.02%
COc1ccc2nc(NC(=O)CSC3=NCCS3)sc2c1 | inconclusive: 39.8 µM [inhibitor, single point] | –
CCCC(=O)Nc1ccc(-c2ccc(NC(=O)CCC)cc2)cc1 | active: 12.6 µM | –
C=C1c2cc(CC)ccc2NC(=O)N1c1ccc(C)cc1 | – | inactive: -5.5%
Cc1ccc2c(CSc3nc4ccccc4c(=O)n3CCCO)cc(=O)oc2c1C | inconclusive: 25.1 µM [activator, single point] | –

Reference: PubChem BioAssay AID1476 (National Center for Advancing Translational Sciences (NCATS), 2009)
